44 molecules from the supplement of paper PMC11348887 can be followed below.

Molecules are shown by their SMILES. Where a name gives a salt, the structure may show the parent alone. This is one part of the list. No stated cut-off is given here; in the data, active = -2 or less and inactive = the rest. Most values come without repeats; read them as rough.
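Further: nuclei counted from DAPI counterstain by automated high-content image analysis, four fields per well at ×20 in 384-well plates, with sequential b-score then z-score normalization.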

For the assay, the system named is hPSC-derived cortical neurons (WA09). Kind of assay: nuclei number (viability) z-score; higher = more surviving cells. To be noted: 5 µM; treatment: days 7-14 after plating, readout day 21.
In the case of `CCN(CC)CC(=O)Nc1c(C)cccc1C` [Lidocaine], the “nuclei number (z-score)” value was inactive: 2.13.
Regarding `CCN(CC)CC(=O)Nc1c(C)cccc1C` [Lidocaine hydrochloride], the “nuclei number (z-score)” value was inactive: 0.404.
With `CC(=O)c1cc2c(o1)C(=O)c1ccccc1C2=O` [Napabucasin], the “nuclei number (z-score)” value is inactive: -0.0522.
In the case of `CN1CCN(C(c2ccccc2)c2ccccc2)CC1` [Cyclizine 2HCl] it was inactive: 0.0426; in that of `CC(C)OC(=O)C1=CN(C(=O)c2ccc(F)c(F)c2)CC(C)(C)c2c1[nH]c1ccccc21`, inactive: 0.449; in that of `COC(=O)[C@@H]1CC2=CC(=O)CC[C@]2(C)[C@@]23O[C@@H]2C[C@@]2(C)[C@@H](CC[C@@]24CCC(=O)O4)[C@H]13` [Eplerenone], inactive: 0.156.
For `Clc1ccc(C(c2c[nH]c3ccccc23)c2c[nH]c3ccccc23)cc1`, the “nuclei number (z-score)” value is inactive: 5.36.
In the case of `CC(C)(C)[N+]([O-])=Cc1ccc(S(=O)(=O)O)cc1S(=O)(=O)O` it was inactive: -0.00725.
With `O=C(/C=C\n1cnc(-c2cc(C(F)(F)F)cc(C(F)(F)F)c2)n1)N1CC(F)(F)C1` the figure was active: -4.46; with `C[C@]12CC[C@@H]3c4ccc(OC(=O)c5ccccc5)cc4CC[C@H]3[C@@H]1CC[C@@H]2O` [Estradiol Benzoate], inactive: 0.65.
With `Cc1ccc(F)c(NC(=O)Nc2ccc(-c3cccc4[nH]nc(N)c34)cc2)c1` [Linifanib (ABT-869)] the figure was inactive: 1.99; with `CC[C@@H](C)Nc1cc(C(=O)N[C@H]2C[C@H]3CC[C@@H](C2)N3c2ccc(C(=O)C3CC3)cn2)c(C)cc1C(N)=O`, active: -2.42; with `Cc1ccc(NC(=O)c2cccc(C(C)(C)C#N)c2)cc1Nc1ccc2ncn(C)c(=O)c2c1`, inactive: 0.473.
Turning to `OCCN(CCO)c1nc(N2CCCCC2)c2nc(N(CCO)CCO)nc(N3CCCCC3)c2n1` [Dipyridamole], the “nuclei number (z-score)” value was inactive: -0.295.
With `CC[C@H](CO)Nc1nc(NCc2ccccc2)c2ncn(C(C)C)c2n1` [Roscovitine (Seliciclib_CYC202)] the figure was inactive: -0.18.
With `CCn1c2ccccc2c2cc(CNCc3ccccc3OC)ccc21` the figure was inactive: -1.63.
In the case of `CC(C)(CO)C(O)C(=O)NCCC(=O)O` [Calcium D-Panthotenate] it was inactive: -0.644.
For the molecule `CC(C)OC(=O)OCOP(=O)(CO[C@H](C)Cn1cnc2c(N)ncnc21)OCOC(=O)OC(C)C` [Tenofovir Disoproxil Fumarate], the “nuclei number (z-score)” value was inactive: 0.531.
With `CCN(CC)CCNC(C(=O)OCCC(C)C)c1ccccc1` (centres undefined) [Camylofin Chlorhydrate] the figure was inactive: 3.33; with `C[C@@H]1C[C@H]2[C@@H]3CCC4=CC(=O)C=C[C@]4(C)[C@@]3(F)[C@@H](O)C[C@]2(C)[C@@]1(O)C(=O)COP(=O)(O)O` [Dexamethasone Sodium Phosphate], inactive: -0.461.
In the case of `Cc1cccc(CC(=O)N2CCc3c2ccc(-c2cn(C)c4ncnc(N)c24)c3F)n1` it was inactive: -0.0309.
With `COc1ccc(-n2c(SCCCN3C(=O)c4cccc5cccc(c45)C3=O)nnc2-c2ccncc2)cc1` the figure was inactive: -0.112; with `Cc1c(-c2cnccn2)ssc1=S` [Oltipraz], inactive: 0.156; with `N#Cc1cc2cc(CN3CCC(Nc4ncnc5sc(CC(F)(F)F)cc45)CC3)ccc2[nH]1`, active: -2.12.
In the case of `Cc1ccc(=O)n(-c2ccccc2)c1` [Pirfenidone], the “nuclei number (z-score)” value is inactive: -0.453.
In the case of `Nc1c2ccccc2nc2ccccc12` [9-Aminoacridine] it was inactive: -0.521; in that of `CCN1CCN(Cc2ccc(C(=O)Nc3ccc(C)c(Oc4ccc5c(c4)CC(=O)N5)c3)cc2C(F)(F)F)CC1`, inactive: -0.311; in that of `N[C@@H](Cc1cc(I)c(Oc2ccc(O)c(I)c2)c(I)c1)C(=O)O` [Liothyronine Sodium], inactive: 0.00511.
In the case of `COc1ccc(C2CC(=O)c3c(O)cc(OC4OC(COC5OC(C)C(O)C(O)C5O)C(O)C(O)C4O)cc3O2)cc1OC` (centres undefined) [Methyl-Hesperidin] it was inactive: -0.506.
With `CN(C)C(=O)[C@H](O)[C@H](Cc1ccccc1)NC(=O)c1cc2cc(Cl)ccc2[nH]1`, the “nuclei number (z-score)” value was inactive: 2.04.
In the case of `O=C(Oc1cc(S(=O)(=O)c2ccccc2)ccc1[N+](=O)[O-])c1ccc(Cl)cc1` it was inactive: 5.03; in that of `Cc1cc(CN2CCN(c3c(Br)cnc4nc(-c5ccc(N6CCN(C)CC6)cc5)[nH]c34)CC2)no1`, active: -5.86.
With `CC(C)(O)CNc1ncc(-c2ccnc(Nc3ccnc(Cl)c3)n2)c(CC2CC2)n1` the figure was active: -4.83.
As to `CNc1nc(Nc2cn(C(C)(C)C#N)nc2C)ncc1C(F)(F)F`, the “nuclei number (z-score)” value was inactive: -0.466.
In the case of `C=CC(=O)N1C/C(=C\c2ccc([N+](=O)[O-])cc2)C(=O)/C(=C/c2ccc([N+](=O)[O-])cc2)C1` it was inactive: -1.35; in that of `COC(=O)C1=C(C#N)NC(C)=C(C(=O)OC(C)C)C1c1cccc([N+](=O)[O-])c1` (centres undefined) [Nilvadipine], inactive: 0.67.
In the case of `COCCCN1CCC(NC(=O)c2cc(Cl)c(N)c3c2OCC3)CC1` [Prucalopride] it was inactive: -0.877; in that of `COCCCN1CCC(NC(=O)c2cc(Cl)c(N)c3c2OCC3)CC1` [Prucalopride Succinat], inactive: 3.71.
As for `O=C(CCCN1CCN(c2ccccn2)CC1)c1ccc(F)cc1` [Azaperone], the “nuclei number (z-score)” value was inactive: 0.296.
`CCCCCCNC(=O)Nc1ccc(S(=O)(=O)Nc2ccc(CCNC[C@H](O)COc3ccc(O)cc3)cc2)cc1`: the “nuclei number (z-score)” value was inactive: -1.12.
With `O=C(Nc1ccncc1)c1cc([N+](=O)[O-])ccc1Cl` the figure was inactive: 1.65; with `C[C@@H](O)[C@@H]1NC(=O)[C@H](CCCCN)NC(=O)[C@@H](Cc2c[nH]c3ccccc23)NC(=O)[C@H](Cc2ccccc2)NC(=O)[C@@H](NC(=O)[C@H](N)Cc2ccccc2)CSSC[C@@H](C(=O)N[C@H](CO)[C@@H](C)O)NC1=O` [Octreotide Acetate], inactive: -0.878.
In the case of `c1ccc(CNc2ncnc3[nH]cnc23)cc1` [6-Benzylaminopurine] it was inactive: 3.86; in that of `C[C@H](CCC(=O)O)[C@H]1CC[C@H]2[C@@H]3[C@@H](O)C[C@@H]4C[C@H](O)CC[C@]4(C)[C@H]3CC[C@]12C` [Ursodiol], inactive: 0.544.
